In the supplement of paper PMC12217912:
This is one part of the list. The full chains were built here from the parent and the listed change. Inactive controls read about 0.05.

B1: TEV protease; numbered along this chain (parent)
chain: MGESLFKGPRDYNPISSSICHLTNESDGHTTSLYGIGFGPFIITNKHLFRRNNGTLVVQSLHGVFKVKDTTTLQQHLVDGRDMIIIRMPKDFPPFPQKLKFREPQREERICLVTTNFQTKSMSSMVSDTSCTFPSGDGIFWKHWIQTKDGQCGSPLVSTRDGFIVGIHSASNFTNTNNYFTSVPKNFMELLTNQEAQQWVSGWRLNADSVLWGGHKVFMVKPEEPFQPVKEATQL

Variants of: B1
Assay: raw area under fraction-flipped curve 0-4 h after induction (AUC4h, not background-subtracted), DNA-recorder readout of cleavage of the substrate (dimensionless); higher = more cleavage of the substrate by the protease variant
Conditions: temperature: 34 °C; time window: 0-4 h after rhamnose induction
Method: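 In vivo DNA recorder in E. coli TOP10(DE3) ΔrhaA at 34 °C. Each TEVp single-site mutant (parent TEVp 0) is paired with a single-site variant of the 7-mer TEVs (canonical ENLYFQ|S). The substrate sits between flexible linkers in a Bxb1-sfGFP-TEVs-SsrA fusion, so cleavage stabilises Bxb1 and speeds flipping of a recombination array, read by NGS. The value is the raw area under the fraction-flipped curve over 0-4 h after rhamnose induction (AUC4h), with ≥20 reads per time point. It is not background-subtracted; inactive controls average about 0.047.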
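Further: Bxb1 expression induced with 0.2% (w/v) L-rhamnose at OD600 near 0.5, cultures sampled hourly, flipped fraction per protease–substrate barcode pair counted by paired-end Illumina sequencing.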

Row | Variant | area with substrate DNLYFQS | area with substrate GNLYFQS | area with substrate HNLYFQS | area with substrate MNLYFQS | area with substrate VNLYFQS | area with substrate WNLYFQS | area with substrate YNLYFQS | area with substrate KNLYFQS | area with substrate LNLYFQS | area with substrate PNLYFQS
1 | MGESLFKGPRDYNPISSSICHLTNESDGHTTSLYGIGFGPFIITNKHLFRRNNGTLVVQSLHGVFKVKDTTTLQQHLVDGRDMIIIRMPKDFPPFPQKLKFREPQREERICLVSTNFQTKSMSSMVSDTSCTFPSGDGIFWKHWIQTKDGQCGSPLVSTRDGFIVGIHSASNFTNTNNYFTSVPKNFMELLTNQEAQQWVSGWRLNADSVLWGGHKVFMVKPEEPFQPVKEATQL [T114S] | 0.0859 | 0.0851 | 0.0671 | 0.0668 | 0.0555 | 0.0578 | 0.069 | – | – | –
2 | MGESLFKGPRDYNPISSSICHLTNESDGHTTSLYGIGFGPFIITNKHLFRRNNGTLVVQSLHGVFKVKDTTTLQQHLVDGRDMIIIRMPKDFPPFPQKLKFREPQREERICLVTHNFQTKSMSSMVSDTSCTFPSGDGIFWKHWIQTKDGQCGSPLVSTRDGFIVGIHSASNFTNTNNYFTSVPKNFMELLTNQEAQQWVSGWRLNADSVLWGGHKVFMVKPEEPFQPVKEATQL [T115H] | 0.0489 | 0.062 | 0.0703 | 0.0712 | – | 0.0536 | 0.0057 | 0.0611 | 0.0686 | 0.0757
3 | MGESLFKGPRDYNPISSSICHLTNESDGHTTSLYGIGFGPFIITNKHLFRRNNGTLVVQSLHGVFKVKDTTTLQQHLVDGRDMIIIRMPKDFPPFPQKLKFREPQREERICLVTTIFQTKSMSSMVSDTSCTFPSGDGIFWKHWIQTKDGQCGSPLVSTRDGFIVGIHSASNFTNTNNYFTSVPKNFMELLTNQEAQQWVSGWRLNADSVLWGGHKVFMVKPEEPFQPVKEATQL [N116I] | 0.0634 | 0.0493 | – | – | – | – | – | – | 0.0707 | –
4 | MGESLFKGPRDYNPISSSICHLTNESDGHTTSLYGIGFGPFIITNKHLFRRNNGTLVVQSLHGVFKVKDTTTLQQHLVDGRDMIIIRMPKDFPPFPQKLKFREPQREERICLVTTNTQTKSMSSMVSDTSCTFPSGDGIFWKHWIQTKDGQCGSPLVSTRDGFIVGIHSASNFTNTNNYFTSVPKNFMELLTNQEAQQWVSGWRLNADSVLWGGHKVFMVKPEEPFQPVKEATQL [F117T] | 0.0818 | – | 0.0639 | 0.1 | – | 0.0406 | – | – | – | –
5 | MGESLFKGPRDYNPISSSICHLTNESDGHTTSLYGIGFGPFIITNKHLFRRNNGTLVVQSLHGVFKVKDTTTLQQHLVDGRDMIIIRMPKDFPPFPQKLKFREPQREERICLVTTNYQTKSMSSMVSDTSCTFPSGDGIFWKHWIQTKDGQCGSPLVSTRDGFIVGIHSASNFTNTNNYFTSVPKNFMELLTNQEAQQWVSGWRLNADSVLWGGHKVFMVKPEEPFQPVKEATQL [F117Y] | 0.0484 | – | 0.0738 | 0.0691 | – | 0.0539 | – | – | – | 0.0725
6 | MGESLFKGPRDYNPISSSICHLTNESDGHTTSLYGIGFGPFIITNKHLFRRNNGTLVVQSLHGVFKVKDTTTLQQHLVDGRDMIIIRMPKDFPPFPQKLKFREPQREERICLVTTNFQTKNMSSMVSDTSCTFPSGDGIFWKHWIQTKDGQCGSPLVSTRDGFIVGIHSASNFTNTNNYFTSVPKNFMELLTNQEAQQWVSGWRLNADSVLWGGHKVFMVKPEEPFQPVKEATQL [S121N] | 0.0734 | 0.063 | 0.0629 | – | – | 0.063 | – | – | 0.0645 | –
7 | MGESLFKGPRDYNPISSSICHLTNESDGHTTSLYGIGFGPFIITNKHLFRRNNGTLVVQSLHGVFKVKDTTTLQQHLVDGRDMIIIRMPKDFPPFPQKLKFREPQREERICLVTTNFQTKSMLSMVSDTSCTFPSGDGIFWKHWIQTKDGQCGSPLVSTRDGFIVGIHSASNFTNTNNYFTSVPKNFMELLTNQEAQQWVSGWRLNADSVLWGGHKVFMVKPEEPFQPVKEATQL [S123L] | 0.0874 | – | 0.045 | – | 0.0623 | 0.0612 | 0.0671 | 0.0734 | – | 0.0689
8 | MGESLFKGPRDYNPISSSICHLTNESDGHTTSLYGIGFGPFIITNKHLFRRNNGTLVVQSLHGVFKVKDTTTLQQHLVDGRDMIIIRMPKDFPPFPQKLKFREPQREERICLVTTNFQTKSMSSMKSDTSCTFPSGDGIFWKHWIQTKDGQCGSPLVSTRDGFIVGIHSASNFTNTNNYFTSVPKNFMELLTNQEAQQWVSGWRLNADSVLWGGHKVFMVKPEEPFQPVKEATQL [V126K] | 0.0684 | – | 0.0592 | 0.073 | – | 0.0529 | 0.0563 | – | – | 0.0685
9 | MGESLFKGPRDYNPISSSICHLTNESDGHTTSLYGIGFGPFIITNKHLFRRNNGTLVVQSLHGVFKVKDTTTLQQHLVDGRDMIIIRMPKDFPPFPQKLKFREPQREERICLVTTNFQTKSMSSMVSDASCTFPSGDGIFWKHWIQTKDGQCGSPLVSTRDGFIVGIHSASNFTNTNNYFTSVPKNFMELLTNQEAQQWVSGWRLNADSVLWGGHKVFMVKPEEPFQPVKEATQL [T129A] | 0.0728 | – | 0.0759 | – | 0.066 | 0.0588 | – | 0.0859 | 0.054 | 0.0689
10 | MGESLFKGPRDYNPISSSICHLTNESDGHTTSLYGIGFGPFIITNKHLFRRNNGTLVVQSLHGVFKVKDTTTLQQHLVDGRDMIIIRMPKDFPPFPQKLKFREPQREERICLVTTNFQTKSMSSMVSDRSCTFPSGDGIFWKHWIQTKDGQCGSPLVSTRDGFIVGIHSASNFTNTNNYFTSVPKNFMELLTNQEAQQWVSGWRLNADSVLWGGHKVFMVKPEEPFQPVKEATQL [T129R] | 0.0907 | – | – | 0.0811 | – | 0.0645 | – | – | 0.0633 | 0.0788

Same assay, conditions: temperature: 34 °C; time window: 0-4 h after rhamnose induction

Row | Variant | area with substrate SNLYFQS | area with substrate TNLYFQS | area with substrate FNLYFQS | area with substrate INLYFQS | area with substrate NNLYFQS | area with substrate QNLYFQS | area with substrate RNLYFQS
11 | MGESLFKGPRDYNPISSSICHLTNESDGHTTSLYGIGFGPFIITNKHLFRRNNGTLVVQSLHGVFKVKDTTTLQQHLVDGRDMIIIRMPKDFPPFPQKLKFREPQREERICLVTHNFQTKSMSSMVSDTSCTFPSGDGIFWKHWIQTKDGQCGSPLVSTRDGFIVGIHSASNFTNTNNYFTSVPKNFMELLTNQEAQQWVSGWRLNADSVLWGGHKVFMVKPEEPFQPVKEATQL [T115H] | 0.0614 | 0.054 | – | – | – | – | –
12 | MGESLFKGPRDYNPISSSICHLTNESDGHTTSLYGIGFGPFIITNKHLFRRNNGTLVVQSLHGVFKVKDTTTLQQHLVDGRDMIIIRMPKDFPPFPQKLKFREPQREERICLVTTIFQTKSMSSMVSDTSCTFPSGDGIFWKHWIQTKDGQCGSPLVSTRDGFIVGIHSASNFTNTNNYFTSVPKNFMELLTNQEAQQWVSGWRLNADSVLWGGHKVFMVKPEEPFQPVKEATQL [N116I] | – | 0.0686 | – | – | – | – | –
13 | MGESLFKGPRDYNPISSSICHLTNESDGHTTSLYGIGFGPFIITNKHLFRRNNGTLVVQSLHGVFKVKDTTTLQQHLVDGRDMIIIRMPKDFPPFPQKLKFREPQREERICLVTTNTQTKSMSSMVSDTSCTFPSGDGIFWKHWIQTKDGQCGSPLVSTRDGFIVGIHSASNFTNTNNYFTSVPKNFMELLTNQEAQQWVSGWRLNADSVLWGGHKVFMVKPEEPFQPVKEATQL [F117T] | 0.0662 | 0.0624 | 0.0706 | 0.0582 | – | – | –
14 | MGESLFKGPRDYNPISSSICHLTNESDGHTTSLYGIGFGPFIITNKHLFRRNNGTLVVQSLHGVFKVKDTTTLQQHLVDGRDMIIIRMPKDFPPFPQKLKFREPQREERICLVTTNYQTKSMSSMVSDTSCTFPSGDGIFWKHWIQTKDGQCGSPLVSTRDGFIVGIHSASNFTNTNNYFTSVPKNFMELLTNQEAQQWVSGWRLNADSVLWGGHKVFMVKPEEPFQPVKEATQL [F117Y] | 0.0619 | 0.0822 | – | – | – | – | –
15 | MGESLFKGPRDYNPISSSICHLTNESDGHTTSLYGIGFGPFIITNKHLFRRNNGTLVVQSLHGVFKVKDTTTLQQHLVDGRDMIIIRMPKDFPPFPQKLKFREPQREERICLVTTNFQTKNMSSMVSDTSCTFPSGDGIFWKHWIQTKDGQCGSPLVSTRDGFIVGIHSASNFTNTNNYFTSVPKNFMELLTNQEAQQWVSGWRLNADSVLWGGHKVFMVKPEEPFQPVKEATQL [S121N] | – | 0.0674 | 0.0598 | – | 0.0678 | – | –
16 | MGESLFKGPRDYNPISSSICHLTNESDGHTTSLYGIGFGPFIITNKHLFRRNNGTLVVQSLHGVFKVKDTTTLQQHLVDGRDMIIIRMPKDFPPFPQKLKFREPQREERICLVTTNFQTKSMLSMVSDTSCTFPSGDGIFWKHWIQTKDGQCGSPLVSTRDGFIVGIHSASNFTNTNNYFTSVPKNFMELLTNQEAQQWVSGWRLNADSVLWGGHKVFMVKPEEPFQPVKEATQL [S123L] | 0.0714 | 0.0805 | 0.0732 | 0.0674 | 0.0763 | – | –
17 | MGESLFKGPRDYNPISSSICHLTNESDGHTTSLYGIGFGPFIITNKHLFRRNNGTLVVQSLHGVFKVKDTTTLQQHLVDGRDMIIIRMPKDFPPFPQKLKFREPQREERICLVTTNFQTKSMSSMKSDTSCTFPSGDGIFWKHWIQTKDGQCGSPLVSTRDGFIVGIHSASNFTNTNNYFTSVPKNFMELLTNQEAQQWVSGWRLNADSVLWGGHKVFMVKPEEPFQPVKEATQL [V126K] | 0.0805 | 0.0728 | 0.0658 | 0.0641 | 0.0542 | – | –
18 | MGESLFKGPRDYNPISSSICHLTNESDGHTTSLYGIGFGPFIITNKHLFRRNNGTLVVQSLHGVFKVKDTTTLQQHLVDGRDMIIIRMPKDFPPFPQKLKFREPQREERICLVTTNFQTKSMSSMVSDASCTFPSGDGIFWKHWIQTKDGQCGSPLVSTRDGFIVGIHSASNFTNTNNYFTSVPKNFMELLTNQEAQQWVSGWRLNADSVLWGGHKVFMVKPEEPFQPVKEATQL [T129A] | – | 0.0668 | – | 0.0476 | – | 0.0717 | 0.0809
19 | MGESLFKGPRDYNPISSSICHLTNESDGHTTSLYGIGFGPFIITNKHLFRRNNGTLVVQSLHGVFKVKDTTTLQQHLVDGRDMIIIRMPKDFPPFPQKLKFREPQREERICLVTTNFQTKSMSSMVSDRSCTFPSGDGIFWKHWIQTKDGQCGSPLVSTRDGFIVGIHSASNFTNTNNYFTSVPKNFMELLTNQEAQQWVSGWRLNADSVLWGGHKVFMVKPEEPFQPVKEATQL [T129R] | – | 0.066 | 0.0645 | – | – | – | –
